Reference: PMC6212790
The list shows a part of the results. At the low end of the ranking the order means little.

target: T1, GST-Rok-C97-191 (UniProt O34857); assay: protein binding microarray; conditions: Rok is a gene silencer of Bacillus subtilis; high values mean tight binding; most listed sequences are background and not binding sites; double strand, one strand shown;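 further: rank score from −0.5 (least bound) to 0.5 (best bound)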
T1 sequence: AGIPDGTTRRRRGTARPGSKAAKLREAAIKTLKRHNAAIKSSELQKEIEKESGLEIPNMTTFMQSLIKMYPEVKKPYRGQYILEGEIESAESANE

| Sequence | binding signal [E-score] |
| --- | --- |
| ACTTCAAG | -0.039 |
| ACTACTCA | 0.265 |
| GTGAATCA | -0.166 |
| ACAGGGAC | -0.11 |
| ATGGGAAA | -0.0341 |
| AAAGATTC | 0.156 |
| AGATCCCA | -0.00972 |
| CCCGTAAC | 0.0565 |
| CGTTTTTC | -0.162 |
| ACATGAAG | 0.0346 |
| ACTGATTC | 0.173 |
| ACATGAGA | 0.148 |
| GAAACAGA | 0.0689 |
| AATATGTC | 0.135 |
| CTTGACTA | 0.165 |
| CCTACAGC | -0.0272 |
| GAGCCGAA | -0.0816 |
| GATTTGCC | -0.0374 |
| CTAGTAGA | 0.382 |
| TAGACATA | 0.0841 |
| CAGTCCTC | -0.284 |
| CGATTCGC | -0.131 |
| TCATGCCA | -0.000693 |
| AGTTACAT | 0.342 |
| ATACTCTC | 0.0157 |

| Sequence | binding signal [E-score] |
| --- | --- |
| ACTGGGCA | -0.327 |
| AAGTCAGC | -0.228 |
| AAGACTTG | 0.00361 |
| CGCGTCGA | -0.0553 |
| ATTTACGC | 0.00742 |
| AAAATAAC | 0.2 |
| CAGAACAC | -0.165 |
| GAATTTAC | 0.282 |
| ATTTGCAG | 0.0703 |
| ACTTCCGC | 0.0187 |
| CCAGGTTA | -0.0595 |
| TCTCCGCA | -0.181 |
| ACGGTTCT | 6.54e-05 |
| AGGGCTGC | -0.257 |
| ATCATGAC | 0.0342 |
| CCAGAGAC | -0.112 |
| CCGCAATC | -0.0456 |
| GGAAGGAC | -0.11 |
| AACGACGC | -0.196 |
| GCAAGCGA | -0.0261 |
| ACTCTTTC | -0.0799 |
| TGACTGCA | -0.0427 |
| ATGCTAAA | 0.144 |
| ACAAGTTC | -0.0558 |
| ACCAAGTC | -0.214 |

| Sequence | binding signal [E-score] |
| --- | --- |
| ATATTTTG | 0.237 |
| ATCATAGG | 0.0665 |
| CAAAGACC | -0.0766 |
| GCATTAGA | -0.0444 |
| AAGCTTGG | -0.0293 |
| CACAGCGC | -0.276 |
| CGTCCCAG | -0.132 |
| GCCGTCAA | -0.135 |
| AAATTGTG | 0.108 |
| GACTTCCC | -0.115 |
| GCCTAGCA | -0.09 |
| AATCCCTC | -0.105 |
| AGCGTTTA | 0.016 |
| AGACCCCT | -0.337 |
| ATATGCAG | 0.0409 |
| AAGTATAT | 0.318 |
| ACATTCAA | 0.105 |
| ATCTACAA | 0.266 |
| ACAGTCAC | -0.0206 |
| CCGCTAGC | 0.0168 |
| ACCTACAG | 0.0787 |
| AAAGGTCA | -0.146 |
| CCTATTTC | -0.00542 |
| CCATCTTC | 0.00999 |
| ATACCCGA | 0.166 |

| Sequence | binding signal [E-score] |
| --- | --- |
| AACGTTAA | 0.112 |
| CTGGCGAA | -0.0196 |
| ATTACCGA | 0.191 |
| GATTCTGA | 0.18 |
| GATAATTA | 0.201 |
| CACCAAAG | 0.0283 |
| GGTGATAA | 0.102 |
| ATCGGGCC | -0.173 |
| GTTTACTA | 0.121 |
| GGGAACCC | -0.213 |
| GGTAAAGA | 0.177 |
| GAAACCTA | 0.12 |
| CAGATGTC | 0.0905 |
| CCAGTTGC | 0.015 |
| GCTATAGC | 0.22 |
| ATAGCGTC | 0.15 |
| GTGTGCCA | -0.216 |
| GCCTTTCC | -0.325 |
| GAGTACGA | -0.0364 |
| GGGCTGTA | -0.0262 |
| ACTATAGG | 0.148 |
| ACCAAGCT | 0.000898 |
| CTTATTGA | 0.0265 |
| ACCGTCCC | -0.132 |
| ATTGACTC | 0.00937 |

| Sequence | binding signal [E-score] |
| --- | --- |
| TCCAGCAA | 0.183 |
| GTAGGCAC | -0.108 |
| CTTTGCTC | -0.124 |
| ACCATAAT | 0.153 |
| CTTGCGCA | -0.0858 |
| AGGAACGC | -0.118 |
| GATGGGAA | 0.104 |
| ACACGCCT | 0.000764 |
| AATTAGCA | 0.246 |
| ACCGAGCT | -0.0142 |
| AACGTGAT | 0.0767 |
| GTGGAGCA | 0.057 |
| AGGATCCG | -0.138 |
| GTCACCGA | -0.0297 |
| AGATGATG | -0.0485 |
| ACTTCCTC | -0.124 |
| ACGGGAGG | -0.215 |
| AACTCGGG | 0.202 |
| AGACTCCG | -0.0814 |
| GGGTCACA | 0.107 |
| AATGTACC | 0.373 |
| CCGGTAGG | 0.058 |
| AACCTCAG | 0.129 |
| GTGAATAA | -0.0509 |
| CGAGATTA | 0.0604 |

| Sequence | binding signal [E-score] |
| --- | --- |
| CTTGCGAA | -0.211 |
| ATAAGTTG | 0.181 |
| ACTGGTCC | -0.202 |
| ATGCGGCG | -0.186 |
| GACGTTCA | -0.173 |
| CCGCGGCC | -0.374 |
| TCCCCCGA | -0.265 |
| ATCAATCA | 0.143 |
| CAAGAAGC | -0.193 |
| GCGCTCGA | -0.0923 |
| CTCGGGCC | -0.213 |
| GGGAGAAA | -0.0512 |
| CACCATGC | -0.0257 |
| AGGTATAT | 0.258 |
| ATCAGAAC | 0.0576 |
| GAAGCAAC | -0.0116 |
| AGATATCG | 0.24 |
| AGTCAGGA | -0.181 |
| TAGGGCCA | -0.0385 |
| GACCAGCA | -0.254 |
| AAAATCTA | 0.339 |
| ATGGAACG | -0.179 |
| CATCACCC | -0.267 |
| AGCCCATG | -0.109 |
| AGATTAGA | 0.233 |

| Sequence | binding signal [E-score] |
| --- | --- |
| GCTCGAGC | -0.176 |
| CTCATACA | 0.109 |
| AATGCAAA | 0.133 |
| ACAGCGCT | -0.144 |
| ATCGCTCC | -0.234 |
| ACTGCAAC | 0.0936 |
| ACTCGGAT | 0.13 |
| ATCAAGAG | 0.121 |
| CGTCTAAG | -0.0871 |
| AATGATCC | 0.0426 |
| CTCATAGC | -0.194 |
| GAATTGTA | 0.107 |
| ACTTCCAA | 0.174 |
| GCACTAAA | 0.172 |
| GTGGCTGA | -0.15 |
| AAATCACT | -0.0376 |
| GGCAACCC | -0.299 |
| CCTAGCCA | -0.219 |
| GATGTAGA | 0.23 |
| ATACTGTG | -0.082 |
| CAATGTGC | 0.0562 |
| AAGCGTCA | -0.165 |
